# Data as given in the supplement of paper PMC5499739.
# In all, about 16,000 sequences were measured (“Z-score”: median about -0.37, highest 2% from about 3.1 on). Some of the results follow.
# Tested on: RBM10 RRM1-ZnF-RRM2 (GST-tagged construct)
# Test: RNAcompete 7-mer binding Z-score; higher = stronger binding preference
# Description: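 RNAcompete: 20 pmol GST-tagged RBM10 RNA-binding constructs were incubated with a designed RNA pool of about 241,000 sequences up to 41 nt (1.5 nmol) on glutathione beads for 30 min at 4 °C and washed. Bound RNAs were identified by microarray hybridisation. Each RNA 7-mer is scored by a one-sided Z-score of its enrichment, computed over probes that contain the 7-mer within longer pool sequences.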
row,Sequence,RNAcompete 7-mer binding Z-score
1,UGGAGCU,0.494
2,GCUGGCG,0.647
3,GAUGUCU,-0.537
4,CCGUACG,-0.544
5,GUAACUU,-0.435
6,CCCUUCU,-0.836
7,AGUCCCU,-0.85
8,GUCCGAC,-0.704
9,CCUAGUA,-0.482
10,GCUUAUG,-0.435
11,AUCAAGC,-0.435
12,ACUUUGG,-0.351
13,UUCACCA,-0.792
14,CAGACGA,0.501
15,UAAAGAG,0.312
16,UAUCGCG,-0.358
17,UUUGCGG,-0.14
18,GAUCUGA,-0.519
19,UUGGGUC,1.03
20,CGGUCCA,-0.537
21,CACCGAG,-0.289
22,UACAAUG,-0.0925
23,UAGGUUG,1.68

row,Sequence,RNAcompete 7-mer binding Z-score
1,CGCGAAA,-0.475
2,UUUGUGG,0.833
3,CUGUUAA,-0.781
4,CCGCCGU,-0.683
5,UUGCACG,-0.253
6,AGGAUGG,3.4
7,GUACUUC,-0.694
8,GACGCGG,1.03
9,CCUCUGA,-0.788
10,CACCAGG,0.21
11,AGCUACG,-0.213
12,ACCAGGA,1.09
13,UCAACAA,-0.373
14,GUGUCCC,-0.26
15,GUUUCAA,-0.475
16,CAACUGG,0.0786
17,GUUAUCG,0.0313
18,CAACAUU,-0.566
19,AAACCGU,-0.602
20,GGGCUGA,1.02
21,CGUGCGG,1.24
22,ACAAUCU,-0.795
23,UUAUUAG,-0.286

row,Sequence,RNAcompete 7-mer binding Z-score
1,CUGGCUA,-0.486
2,UCUAUGU,-0.61
3,ACUAAGA,-0.322
4,CCCAACC,-0.795
5,AGGGGGC,1.4
6,AUCUAUU,-0.653
7,UAUUGCA,-0.475
8,CCGAGUC,-0.817
9,AGCGUCG,0.0495
10,CCUACGC,-0.755
11,CAUAAUG,-0.384
12,CCUAGUC,-0.846
13,AACCAUU,-0.632
14,CGCAAUA,-0.46
15,UCGUACA,-0.369
16,GGACCGU,0.0532
17,ACGAUUC,-0.551
18,AGAGAUU,-0.103
19,GACGCCG,-0.646
20,GCAGUAA,0.538
21,UGAACCA,-0.384
22,GGAAGCU,0.683
23,GAGUGCG,1.3

row,Sequence,RNAcompete 7-mer binding Z-score
1,AGUGGCU,0.534
2,UUCGUUU,-0.409
3,AAAUCAC,-0.522
4,CCAAGUU,-0.715
5,AUAUUAC,-0.541
6,UAAUGAU,-0.417
7,CUGACAA,-0.533
8,CACGCCA,-0.734
9,GCAUCUU,-0.763
10,ACGGGUA,2.22
11,CUUUCCU,-0.912
12,GCCAGAC,-0.493
13,UCCGUCG,-0.511
14,GCGCAUA,-0.154
15,GUAUCAU,-0.286
16,UGGUAUU,-0.0197
17,GUCUCCU,-0.694
18,CGAAGAC,-0.431
19,CAGCUGU,-0.624
20,CAUUUCA,-0.846
21,UUACGGU,-0.144
22,UCGAUCA,-0.515
23,CGCGAUG,-0.0306

row,Sequence,RNAcompete 7-mer binding Z-score
1,ACCAGAU,-0.606
2,UCGUCUG,-0.635
3,UUCAGAC,-0.664
4,AUCCGUG,-0.723
5,GAGGGUU,2.88
6,CGCUGAG,-0.118
7,GAGUCCG,-0.253
8,UCCUGUC,-0.934
9,AGUCCCA,-0.712
10,CGUAACA,-0.3
11,CCAGAUA,-0.643
12,CUUUCGG,-0.679
13,UAUAGAU,-0.187
14,UAUAUAC,-0.471
15,AUGUUCA,-0.752
16,CGACACC,-0.635
17,AAGCAAA,-0.0634
18,GUCUGUU,-0.548
19,UCCUUGA,-0.857
20,GACGUAG,0.691
21,AAUCAGA,0.243
22,UCAAUUA,-0.664
23,GGAGUAU,1.4

row,Sequence,RNAcompete 7-mer binding Z-score
1,CGCCGCG,-0.453
2,UUCGUCC,-0.806
3,GUUAGUA,0.41
4,GCUUGAU,-0.65
5,AGUGUCA,-0.329
6,UCCUCAC,-0.814
7,GUGUGAU,0.279
8,GUAAGAC,0.319
9,UACGGAC,0.428
10,ACCAGAC,-0.606
11,CUCCGGA,-0.479
12,UUGCGCU,-0.69
13,ACCCCCA,-0.409
14,UACGGUC,-0.446
15,CAUGAAG,0.0313
16,GACCUAG,-0.508
17,CUGACAG,-0.333
18,UAACUUC,-0.65
19,GGGGUGA,3.52
20,UGGUGUG,2.21
21,CACCGGA,0.0604
22,CGCCAAU,-0.704
23,UGUCCGC,-0.777

row,Sequence,RNAcompete 7-mer binding Z-score
1,ACCACCC,-0.65
2,CGCUACC,-0.755
3,AAGGUCG,1.74
4,AACAGAU,-0.0415
5,GAUCGAU,-0.213
6,AGAGCGU,-0.169
7,CGGUUCC,-0.453
8,ACGUUAU,-0.519
9,CAGGGGA,2.8
10,CUCGCCC,-0.632
11,CCACCAC,-0.482
12,AUAGAUC,-0.107
13,UUCCACA,-0.508
14,GACUUAA,-0.592
15,CUGAGUC,-0.548
16,GUAAGCU,0.115
17,UCAUUUU,-0.792
18,AGGCGGU,1.19
19,AUCGAGG,1.4
20,CGAUACG,-0.165
21,CGUUGUC,-0.581
22,GAGGCGA,1.56
23,GUUGAUC,-0.227

row,Sequence,RNAcompete 7-mer binding Z-score
1,AAUGUUC,-0.566
2,ACCCCUC,-0.639
3,UGCGGAC,0.206
4,CCUUCUG,-0.887
5,UACUCAA,-0.734
6,UAUAACC,-0.624
7,GACCCUC,-0.999
8,AUAGGUG,2.41
9,CUGGUUU,-0.493
10,AACCCGG,-0.402
11,UCCAAUG,-0.362
12,CCAUUCG,-0.774
13,UCGAGGA,0.905
14,CGUGACG,0.0167
15,CAUACGG,0.483
16,CGGGAGG,2.96
17,GAAAAUC,-0.307
18,UUUGCUA,-0.686
19,UGAGCAG,0.705
20,CCUAUCC,-0.967
21,GCCAGAA,-0.337
22,UGCCUCC,-0.701
